# According to publication PMC4336329 (PLoS ONE, 2015):
# Out of some 310,000 compounds screened, about 2,200 (0.71%) showed an effect of 50% or more. Effects have a minus sign here. Some of the results follow.
# Molecular target: human ether-à-go-go-related gene (hERG) potassium channel (human, UniProt Q12809)
# Experiment: primary screen, population patch clamp on CHO cells stably expressing hERG
# Sequence of human ether-à-go-go-related gene (hERG) potassium channel (Q12809 whole entry, looked up): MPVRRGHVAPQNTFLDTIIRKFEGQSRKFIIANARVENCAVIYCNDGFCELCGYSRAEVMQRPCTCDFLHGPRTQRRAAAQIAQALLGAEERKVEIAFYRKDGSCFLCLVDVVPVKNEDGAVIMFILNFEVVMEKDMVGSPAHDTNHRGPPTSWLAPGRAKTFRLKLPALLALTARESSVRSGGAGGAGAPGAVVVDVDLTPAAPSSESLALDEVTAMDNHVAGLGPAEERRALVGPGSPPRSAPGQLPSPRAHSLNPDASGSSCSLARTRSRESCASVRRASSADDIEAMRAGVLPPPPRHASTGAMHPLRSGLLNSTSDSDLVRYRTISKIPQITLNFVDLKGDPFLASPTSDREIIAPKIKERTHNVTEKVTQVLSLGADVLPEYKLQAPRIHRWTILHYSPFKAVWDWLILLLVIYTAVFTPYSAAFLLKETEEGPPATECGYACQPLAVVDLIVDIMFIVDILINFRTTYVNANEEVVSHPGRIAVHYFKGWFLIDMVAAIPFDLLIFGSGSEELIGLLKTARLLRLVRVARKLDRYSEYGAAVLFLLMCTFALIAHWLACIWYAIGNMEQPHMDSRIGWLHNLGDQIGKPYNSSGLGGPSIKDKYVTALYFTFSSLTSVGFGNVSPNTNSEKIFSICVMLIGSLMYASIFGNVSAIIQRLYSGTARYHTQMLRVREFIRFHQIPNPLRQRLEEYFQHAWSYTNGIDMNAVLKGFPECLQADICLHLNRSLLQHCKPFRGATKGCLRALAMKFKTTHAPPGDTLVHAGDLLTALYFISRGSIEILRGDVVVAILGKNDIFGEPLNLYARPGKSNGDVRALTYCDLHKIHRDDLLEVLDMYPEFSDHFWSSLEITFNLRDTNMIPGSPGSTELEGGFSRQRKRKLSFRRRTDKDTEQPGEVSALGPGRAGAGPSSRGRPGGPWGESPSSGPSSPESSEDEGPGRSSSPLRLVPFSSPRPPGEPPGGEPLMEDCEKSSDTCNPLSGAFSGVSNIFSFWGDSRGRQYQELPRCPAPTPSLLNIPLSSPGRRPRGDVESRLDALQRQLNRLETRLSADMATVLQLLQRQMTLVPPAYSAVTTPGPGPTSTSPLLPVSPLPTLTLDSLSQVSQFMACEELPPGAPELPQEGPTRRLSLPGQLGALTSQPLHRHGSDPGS
row,SMILES,"hERG current change (%, negative = inhibition) at 1uM [%]"
1,CCOC(=O)N1CCN(C(=O)CCn2c(=S)[nH]c3ccsc3c2=O)CC1,15.4
2,CNC(=O)c1cc2cc(Br)ccc2s1,5.98
3,Cc1ccc(-c2nc(CN(Cc3c(C)nn(C)c3C)C(C)C)c(C)o2)o1,7.18
4,CCN1CCN(c2nc3c(c(=O)[nH]c(=O)n3C)n2CCSc2nc3ccccc3s2)CC1,5.71
5,COc1cccc(/C=N/NC(=O)c2[nH]nc3c2CCc2ccccc2-3)c1,18.4
6,CC(=O)c1ccc(NC(=O)CCNS(=O)(=O)c2cc(Br)cnc2N)cc1,6.33
7,COCCNC(=O)c1c[nH]c2ccc(S(=O)(=O)N3CCOCC3)cc2c1=O,25.9
8,CCCc1[nH]nc2c1C(c1cn[nH]c1-c1ccc(F)cc1)C(C#N)=C(N)O2 (stereo not drawn),4.11
9,Cc1ccnc(NS(=O)(=O)c2ccc(NC(=O)c3snnc3C)cc2)n1,15
10,O=C(NCc1ccccc1)c1ccc(Br)cc1,10.6
11,COc1cc(NC(=O)c2cc(OC)c(OC)c(OC)c2)cc(-n2cnnn2)c1,16.3
12,CC(=NCCc1c(C)[nH]c2ccc(OCc3ccccc3)cc12)C1=C(O)CC(c2ccccc2)CC1=O (stereo not drawn),22.4
13,Cn1c(CCNC(=O)OC(C)(C)C)n[nH]c1=S,6.43
14,O=C(NCCN1CCOCC1)c1cccc(S(=O)(=O)N(Cc2ccccc2)c2ccccc2)c1,10.3
15,CC1(C)Cc2cccc(OCC(=O)OCC(=O)c3ccccc3)c2O1,-2.67
16,O=C(Nc1ccc(NC(=O)C2CC2)nc1)c1ccco1,11.3
17,O=C(COc1ccc2ccccc2c1)N/N=C/c1ccccn1,-6.2
18,COCCCNC(=O)Cc1c(C)c2cc3c(cc2oc1=O)OC(C)(C)CC3,12.6
19,O=C(CN1CCN(Cc2ccc(F)cc2)CC1)NCCc1ccccc1,-0.477
20,O=C(NC(NC1CCS(=O)(=O)C1)C(=O)c1ccccc1)c1ccc(Cl)cc1 (stereo not drawn),-4.26
21,COc1ccc(NC(=O)Cc2c(F)c(F)c(F)c(F)c2F)cc1OC,16.8
22,O=C(c1ccccc1Cl)N1N=C(c2cccs2)CC1c1cccc(O)c1 (stereo not drawn),12.8
23,CC1CCc2c(sc3nc(SCC(=O)O)n(-c4ccccc4)c(=O)c23)C1 (stereo not drawn),11.4
24,COC(=O)c1c(N2C(=O)CC(Sc3ccccc3C(=O)O)C2=O)sc2c1CCCC2 (stereo not drawn),16.3

row,SMILES,"hERG current change (%, negative = inhibition) at 1uM [%]"
1,O=C(O)C1CC(c2ccc(F)cc2)=NO1 (stereo not drawn),2.07
2,O=C(CCCC(=O)OCC(=O)c1ccc(Cl)cc1)NC1CCCCC1,11.4
3,Cc1cc(C(=O)COc2ccccc2C(N)=O)c(C)n1C1CC1,9.35
4,COc1ccc(CC(=O)Nc2c3c(nn2-c2cccc(Cl)c2)CS(=O)C3)cc1 (stereo not drawn),-9.2
5,O=C(NNC(=O)c1cc2cc3ccccc3nc2s1)c1cccc(C(F)(F)F)c1,5.76
6,CN1C(=O)[C@H]2[C@@H](/C=C/c3ccccc3)N3C(=O)CN(CC4CC4)C(=O)[C@@]3(C)[C@H]2C1=O,13
7,Cn1ccnc1SCC(=O)Nc1nc2c(F)c(F)c(F)cc2s1,4.09
8,CCCCNC(=S)NNC(=O)c1ccc2c(c1)OCO2,7.12
9,NC(=O)c1ccccc1NC(=O)C(c1ccccc1)c1ccccc1,13.5
10,CNc1ccc([N+](=O)[O-])cc1C(=O)O,0.228
11,COC(=O)c1sccc1NC(=O)C1C2C=CC(O2)C1C(=O)O (stereo not drawn),8.07
12,CCCCC(C(=O)NC(C)(C)C)N(Cc1ccccc1)C(=O)c1snc(C(N)=O)c1N (stereo not drawn),13.7
13,CCOC(=O)N1CCN(CC(=O)Nc2c(C(=O)OC)[nH]c3ccccc23)CC1,7.01
14,Fc1ccc(-c2ccc(-c3nn4c(-c5ccco5)nnc4s3)o2)cc1,-0.511
15,Cc1cccc(C(=O)NNC2=C(C(=O)C(F)(F)F)CCC2)c1O,20.2
16,COc1ccc(NC(=O)c2cc(Br)ccc2Cl)c(OC)c1,3.37
17,CCOC(=O)c1cc(-c2ccccc2)sc1NC(=O)CSc1nnc(N)s1,2.01
18,C=CCC(O)(CC=C)CNC(=O)C1CCC(=O)N(CCCc2ccccc2)C1 (stereo not drawn),12.7
19,COC(=O)c1ccc(Cn2nc(-c3ccc(C)cc3)ccc2=O)cc1,21.1
20,COc1cccc(N2CCN(CC(=O)NCc3ccccc3)CC2)c1,8.47
21,CON/C=C(\C=Nc1ccc(Cl)cc1Cl)c1ncc(C(F)(F)F)cc1Cl,10.7
22,COc1cccc(NC(=O)C2C3C=CC(O3)C2C(=O)O)c1 (stereo not drawn),11.7
23,FC(F)(F)c1cnc(-c2cnc3c(-c4ccc(Cl)cc4)cnn3c2)c(Cl)c1,-5.29
24,CCOC(=O)c1cnc(-c2ccccc2O)nc1Cl,-2.31

row,SMILES,"hERG current change (%, negative = inhibition) at 1uM [%]"
1,CC1(NC(=O)NCc2ccco2)CCS(=O)(=O)C1 (stereo not drawn),8.54
2,O=C(CNc1ccc(Oc2ccccc2)cc1)N1CCOCC1.O=C(O)C(=O)O,6.75
3,O=C(O)C1CCN(C(=O)c2ccccc2N2C(=O)[C@@H]3Cc4c([nH]c5ccccc45)C(c4cccc(Cl)c4)N3C2=O)CC1 (stereo partly drawn),10.6
4,CC(=O)c1cnn(-c2ccc(Cl)cc2)c1C,9.93
5,C#CCOCCOCCOCCNc1nc(N2CCN(C(=O)[C@H](CCCC[NH3+])n3cc(CCC(=O)O)nn3)CC2)nc(N2CCN(C(=O)[C@H](CCCC[NH3+])n3cc(CC(C)O)nn3)CC2)n1.[Cl-] (stereo partly drawn),14.8
6,COc1ccc(Nc2nc(C)cc(=O)[nH]2)cc1,14
7,O=C(COC(=O)c1ccccn1)Nc1ccc(S(=O)(=O)N2CCOCC2)cc1,4.64
8,CS(=O)(=O)N(CCc1ccccc1)CC(=O)NCC1CCCO1 (stereo not drawn),14.9
9,CC(NC(=O)C1CCC(=O)N1Cc1ccc(F)cc1)c1ccc2c(c1)OCCO2 (stereo not drawn),9.76
10,O=C(NCc1ccccn1)Nc1cc(Cl)cc(Cl)c1,4.54
11,CS(=O)(=O)c1ccccc1C(=O)Nc1ccccc1Cc1ccccc1,12.9
12,CCOCCCNC(=O)C(NC(=O)c1ccc(=O)[nH]c1)c1ccc(C)cc1 (stereo not drawn),5.19
13,CC(C)C(NC(=O)CN(c1cccc(F)c1)S(C)(=O)=O)C(C)C,8.33
14,O=C(NCc1ccccn1)C(=O)NCC1OCCN1C(=O)c1ccc(Cl)cc1 (stereo not drawn),4.76
15,CN(CCc1ccccn1)C(=O)Nc1ccc(C(C)(C)C)cc1,7.02
16,OCC1(Cc2cccc(F)c2)CCN(Cc2cccc3nccnc23)CC1,-19.8
17,COCCN1CCN(c2cc(-c3ccccc3)nc3cc(-c4cccc(F)c4)nn23)CC1,9.67
18,O=C(N/N=C/c1cccc(O)c1)N/N=C/c1cccc(O)c1,6.49
19,CCc1ccc2[nH]c(=O)c(CN(Cc3ccccc3)Cc3nnnn3Cc3ccco3)cc2c1,16.3
20,CCN(C(=O)COC(=O)c1cc(Cl)ccc1OC)c1c(N)n(Cc2ccccc2)c(=O)[nH]c1=O,10.7
21,CCCCCC(=O)Nc1ccccc1N1CCN(c2ccccc2)CC1,6.64
22,COc1ccc(NC(=O)O/N=C/c2c(C)nn(C(C)(C)C)c2C)cc1,-5.86
23,O=C(Cc1nc2ccccc2[nH]1)c1cccc([N+](=O)[O-])c1,7.63
24,COc1cc(-c2noc(C)c2/C=C/c2ccc(C(=O)O)cc2)cc(OC)c1OC,5.04
